Results reported in the supplement of paper PMC10369915.
The list shows a part of the results. Rule as the data show it: active = 3.2 or more and inactive = the rest. Only a few entries rise above the background.

What follows are binders tested against SHP2 C-SH2 domain E139D (assay: enrichment score (SH2-bound / input frequency) (ratio); bacterial display of known human phosphotyrosine sites (pTyr-Var adds point mutants) read by sequencing; higher = stronger binding; tyrosines were phosphorylated by kinases first). Details: peptide library: pTyr-Var.
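Also: displayed peptides selected on beads carrying the immobilized SH2 domain, with library peptides lacking any tyrosine serving as negative controls.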

Row | Binder | enrichment score
1 | TEALFYTDDTA [ADPRS_Y75_YF] | inactive: 0.759
2 | FRPHLYGTPSR [ADGRE2_Y670_S665F] | inactive: 2.4
3 | VECHLYFTQPK [AKR1D1_Y199_P198L] | inactive: 1.09
4 | LHRAHYDLHHT [AHSG_Y314_R317H] | active: 3.42
5 | LPKEQYLCTKE [AFG3L2_Y614_Y616C] | inactive: 0.749
6 | ELAKFYKLHHI [AK7_Y391_N389K_YF] | inactive: 0.649
7 | HSLRDYKEALM [ADA2_Y337_H335R] | inactive: 1.1
8 | AMCVRYDGVEV [ADAMTSL2_Y594] | inactive: 0.799
9 | LSSVSYVGCSL [ADGRD1_Y571_I569V] | inactive: 0.684
10 | AVAFLYYKSIG [ADGRL4_Y301_V300L] | inactive: 1.01
11 | IKRIDYEFVEM [ADA_Y84_A83D] | inactive: 1.06
12 | REAAAYPHGRL [AGXT_Y297_L298P] | inactive: 0.859
13 | FKDYFYCWNTS [AICDA_Y146_F151S] | inactive: 1.47
14 | SRPHLYGTPSR [ADGRE2_Y670] | inactive: 1.24
15 | IKRIAYEFVEM [ADA_Y84] | inactive: 0.721
16 | ETDPRYFDEEF [AKT1_Y437_T435P] | inactive: 0.574
17 | GVTLLYFGRFN [ADGRD1_Y85_YF] | inactive: 1.88
18 | KVKVEYDMTVP [AHNAK_Y964_G962V] | inactive: 0.81
19 | FKDFFYCWNTF [AICDA_Y146_YF] | inactive: 1.35

Each binder was assayed against SHP2 C-SH2 domain wild-type in the same assay as above. Details: peptide library: pTyr-Var.

Row | Binder | enrichment score
20 | TEALFYTDDTA [ADPRS_Y75_YF] | inactive: 0.765
21 | FRPHLYGTPSR [ADGRE2_Y670_S665F] | inactive: 1.96
22 | VECHLYFTQPK [AKR1D1_Y199_P198L] | inactive: 1.26
23 | LHRAHYDLHHT [AHSG_Y314_R317H] | inactive: 2.75
24 | LPKEQYLCTKE [AFG3L2_Y614_Y616C] | inactive: 0.951
25 | ELAKFYKLHHI [AK7_Y391_N389K_YF] | inactive: 0.559
26 | HSLRDYKEALM [ADA2_Y337_H335R] | inactive: 1.04
27 | AMCVRYDGVEV [ADAMTSL2_Y594] | inactive: 0.87
28 | LSSVSYVGCSL [ADGRD1_Y571_I569V] | inactive: 0.624
29 | AVAFLYYKSIG [ADGRL4_Y301_V300L] | inactive: 1.39
30 | IKRIDYEFVEM [ADA_Y84_A83D] | inactive: 0.992
31 | REAAAYPHGRL [AGXT_Y297_L298P] | inactive: 0.506
32 | FKDYFYCWNTS [AICDA_Y146_F151S] | inactive: 1.9
33 | SRPHLYGTPSR [ADGRE2_Y670] | inactive: 0.986
34 | IKRIAYEFVEM [ADA_Y84] | inactive: 0.598
35 | ETDPRYFDEEF [AKT1_Y437_T435P] | inactive: 0.542
36 | GVTLLYFGRFN [ADGRD1_Y85_YF] | inactive: 1.81
37 | KVKVEYDMTVP [AHNAK_Y964_G962V] | inactive: 0.795
38 | FKDFFYCWNTF [AICDA_Y146_YF] | inactive: 1.38

These binders were tested against SHP2 N-SH2 domain L43F in the same assay as above. Details: peptide library: pTyr-Var.

Row | Binder | enrichment score
39 | TEALFYTDDTA [ADPRS_Y75_YF] | inactive: 0.702
40 | FRPHLYGTPSR [ADGRE2_Y670_S665F] | inactive: 2.66
41 | VECHLYFTQPK [AKR1D1_Y199_P198L] | inactive: 0.96
42 | LHRAHYDLHHT [AHSG_Y314_R317H] | inactive: 3.07
43 | LPKEQYLCTKE [AFG3L2_Y614_Y616C] | inactive: 0.822
44 | ELAKFYKLHHI [AK7_Y391_N389K_YF] | inactive: 0.655
45 | HSLRDYKEALM [ADA2_Y337_H335R] | inactive: 1.1
46 | AMCVRYDGVEV [ADAMTSL2_Y594] | inactive: 0.923
47 | LSSVSYVGCSL [ADGRD1_Y571_I569V] | inactive: 0.616
48 | AVAFLYYKSIG [ADGRL4_Y301_V300L] | inactive: 1.15
49 | IKRIDYEFVEM [ADA_Y84_A83D] | inactive: 0.658
50 | REAAAYPHGRL [AGXT_Y297_L298P] | inactive: 0.498
51 | FKDYFYCWNTS [AICDA_Y146_F151S] | inactive: 1.16
52 | SRPHLYGTPSR [ADGRE2_Y670] | inactive: 1.12
53 | IKRIAYEFVEM [ADA_Y84] | inactive: 0.697
54 | ETDPRYFDEEF [AKT1_Y437_T435P] | inactive: 0.724
55 | GVTLLYFGRFN [ADGRD1_Y85_YF] | inactive: 1.45
56 | KVKVEYDMTVP [AHNAK_Y964_G962V] | inactive: 0.85
57 | FKDFFYCWNTF [AICDA_Y146_YF] | inactive: 1.32

Each binder was assayed against SHP2 N-SH2 domain T42A in the same assay as above. Details: peptide library: pTyr-Var.

Row | Binder | enrichment score
58 | TEALFYTDDTA [ADPRS_Y75_YF] | inactive: 0.729
59 | FRPHLYGTPSR [ADGRE2_Y670_S665F] | inactive: 2
60 | VECHLYFTQPK [AKR1D1_Y199_P198L] | inactive: 0.615
61 | LHRAHYDLHHT [AHSG_Y314_R317H] | inactive: 2.67
62 | LPKEQYLCTKE [AFG3L2_Y614_Y616C] | inactive: 0.793
63 | ELAKFYKLHHI [AK7_Y391_N389K_YF] | inactive: 0.597
64 | HSLRDYKEALM [ADA2_Y337_H335R] | inactive: 0.795
65 | AMCVRYDGVEV [ADAMTSL2_Y594] | inactive: 0.736
66 | LSSVSYVGCSL [ADGRD1_Y571_I569V] | inactive: 1.37
67 | AVAFLYYKSIG [ADGRL4_Y301_V300L] | inactive: 0.961
68 | IKRIDYEFVEM [ADA_Y84_A83D] | inactive: 0.791
69 | REAAAYPHGRL [AGXT_Y297_L298P] | inactive: 0.52
70 | FKDYFYCWNTS [AICDA_Y146_F151S] | inactive: 1.37
71 | SRPHLYGTPSR [ADGRE2_Y670] | inactive: 1.04
72 | IKRIAYEFVEM [ADA_Y84] | inactive: 0.777
73 | ETDPRYFDEEF [AKT1_Y437_T435P] | inactive: 0.589
74 | GVTLLYFGRFN [ADGRD1_Y85_YF] | inactive: 1.83
75 | KVKVEYDMTVP [AHNAK_Y964_G962V] | inactive: 0.899
76 | FKDFFYCWNTF [AICDA_Y146_YF] | inactive: 1.07

What follows are binders tested against SHP2 N-SH2 domain T52S in the same assay as above. Details: peptide library: pTyr-Var.

Row | Binder | enrichment score
77 | TEALFYTDDTA [ADPRS_Y75_YF] | inactive: 0.843
78 | FRPHLYGTPSR [ADGRE2_Y670_S665F] | inactive: 2.42
79 | VECHLYFTQPK [AKR1D1_Y199_P198L] | inactive: 0.817
80 | LHRAHYDLHHT [AHSG_Y314_R317H] | inactive: 2.81
81 | LPKEQYLCTKE [AFG3L2_Y614_Y616C] | inactive: 0.661
82 | ELAKFYKLHHI [AK7_Y391_N389K_YF] | inactive: 0.743
83 | HSLRDYKEALM [ADA2_Y337_H335R] | inactive: 0.807
84 | AMCVRYDGVEV [ADAMTSL2_Y594] | inactive: 0.943
85 | LSSVSYVGCSL [ADGRD1_Y571_I569V] | inactive: 0.576
86 | AVAFLYYKSIG [ADGRL4_Y301_V300L] | inactive: 1.09
87 | IKRIDYEFVEM [ADA_Y84_A83D] | inactive: 0.878
88 | REAAAYPHGRL [AGXT_Y297_L298P] | inactive: 0.703
89 | FKDYFYCWNTS [AICDA_Y146_F151S] | inactive: 1.41
90 | SRPHLYGTPSR [ADGRE2_Y670] | inactive: 1.42
91 | IKRIAYEFVEM [ADA_Y84] | inactive: 0.657
92 | ETDPRYFDEEF [AKT1_Y437_T435P] | inactive: 0.609
93 | GVTLLYFGRFN [ADGRD1_Y85_YF] | inactive: 1.97
94 | KVKVEYDMTVP [AHNAK_Y964_G962V] | inactive: 0.8
95 | FKDFFYCWNTF [AICDA_Y146_YF] | inactive: 1.21

These binders were tested against SHP2 N-SH2 domain wild-type in the same assay as above. Details: peptide library: pTyr-Var.

Row | Binder | enrichment score
96 | TEALFYTDDTA [ADPRS_Y75_YF] | inactive: 0.951
97 | FRPHLYGTPSR [ADGRE2_Y670_S665F] | inactive: 1.93
98 | VECHLYFTQPK [AKR1D1_Y199_P198L] | inactive: 1.64
99 | LHRAHYDLHHT [AHSG_Y314_R317H] | inactive: 2.79
100 | LPKEQYLCTKE [AFG3L2_Y614_Y616C] | inactive: 1.29
101 | ELAKFYKLHHI [AK7_Y391_N389K_YF] | inactive: 0.658
102 | HSLRDYKEALM [ADA2_Y337_H335R] | inactive: 1.05
103 | AMCVRYDGVEV [ADAMTSL2_Y594] | inactive: 1.21
104 | LSSVSYVGCSL [ADGRD1_Y571_I569V] | inactive: 0.572
105 | AVAFLYYKSIG [ADGRL4_Y301_V300L] | inactive: 1.3
106 | IKRIDYEFVEM [ADA_Y84_A83D] | inactive: 0.897
107 | REAAAYPHGRL [AGXT_Y297_L298P] | inactive: 0.656
108 | FKDYFYCWNTS [AICDA_Y146_F151S] | inactive: 1.86
109 | SRPHLYGTPSR [ADGRE2_Y670] | inactive: 1.32
110 | IKRIAYEFVEM [ADA_Y84] | inactive: 0.741
111 | ETDPRYFDEEF [AKT1_Y437_T435P] | inactive: 0.638
112 | GVTLLYFGRFN [ADGRD1_Y85_YF] | inactive: 1.7
113 | KVKVEYDMTVP [AHNAK_Y964_G962V] | inactive: 0.843
114 | FKDFFYCWNTF [AICDA_Y146_YF] | inactive: 1.39
